Results taken from paper PMC3906830 (The Febs Journal, 2013).

What was measured:
mature myostatin = molecular target: T1, mature myostatin (human, UniProt O14793 267-375); assay: SPR
T1 sequence (looked up): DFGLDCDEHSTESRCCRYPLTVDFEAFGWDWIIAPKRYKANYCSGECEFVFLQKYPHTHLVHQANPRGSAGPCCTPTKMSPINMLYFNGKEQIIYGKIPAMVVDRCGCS

[1] = molecular target: T2, WAP, Kazal, immunoglobulin, Kunitz and NTR domain-containing protein 1 (WFIKKN1), recombinant human (human, UniProt Q96NZ8 20-548); assay: SPR
T2 sequence (looked up): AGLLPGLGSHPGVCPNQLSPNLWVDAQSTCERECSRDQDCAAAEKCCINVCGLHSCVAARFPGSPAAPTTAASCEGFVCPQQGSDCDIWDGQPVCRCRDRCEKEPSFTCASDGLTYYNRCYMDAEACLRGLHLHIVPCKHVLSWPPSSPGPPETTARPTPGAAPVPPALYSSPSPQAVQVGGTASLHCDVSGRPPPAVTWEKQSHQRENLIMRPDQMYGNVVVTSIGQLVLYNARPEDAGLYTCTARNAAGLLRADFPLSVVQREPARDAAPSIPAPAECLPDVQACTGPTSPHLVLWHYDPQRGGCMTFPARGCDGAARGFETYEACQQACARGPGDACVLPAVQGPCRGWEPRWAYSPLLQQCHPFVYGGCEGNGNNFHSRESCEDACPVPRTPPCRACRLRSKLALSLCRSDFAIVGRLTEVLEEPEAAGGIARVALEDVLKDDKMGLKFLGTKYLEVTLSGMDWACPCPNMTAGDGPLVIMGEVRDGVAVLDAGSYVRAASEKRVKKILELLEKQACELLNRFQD

B1: recombinant myostatin prodomain (domain or fragment)
chain: not shown
- IC50 (mature myostatin): ~10 nM
- Kd [1]: 20 nM
